# Test results published in PubChem BioAssay AID624173 (National Center for Advancing Translational Sciences (NCATS), 2012).
# About 490 (0.12%) of roughly 410,000 compounds were called active. Inconclusive results, whose numbers are uncertain, are shown with a selection of clear calls. Calls follow the shape of the dose curve; as a rule, active = well fitted inhibition curve with a large enough effect; inconclusive = small, poorly fitted or top-dose-only effect; inactive = flat fitted curve, though single readings scatter. Potencies of inconclusive entries are doubtful fits and often do not repeat.
# Biological target: pyruvate kinase (Trypanosoma brucei) (UniProt Q57TT1)
# Test: qHTS of Trypanosoma Brucei Inhibitors; also: nearly all actives have a fitted effect of over 50% in size
# Settings: TbPYK enzyme, Kinase-Glo Plus ATP luminescence, 45 min; series mostly up to 76.8 µM; activity, negative = inhibition: at the top concentration
# Procedure, shortened: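 Quantitative HTS: titrated library compounds versus trypanosomal pyruvate kinase in TEA buffer (pH 7.2) containing KCl, MgCl2, BSA and Tween-20. Reactions were initiated with ADP, 130 uM final. Kinase-Glo Plus luminescence was read after 45 min at RT.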
# % is scaled to controls: 0 for no effect and ±100 for the full control effect; potency is read from the fitted curve at half-maximal effect; tags tell the direction and shape of the fitted curve.
SMILES,Potency,"activity, negative = inhibition"
Cc1cc(C(=O)Nc2ccc(Nc3ccccc3)cc2)ccc1[N+](=O)[O-],"inconclusive: 50.1 µM [inhibitor, single point]",–
CSc1ccc(C(=S)N2CCN(C)CC2)cc1,"inconclusive: 31.6 µM [inhibitor, single point]",–
O=[N+]([O-])c1cc2c(cc1/C=N/n1c(-c3ccccc3)n[nH]c1=S)OCO2,"inconclusive: 6.31 µM [inhibitor, partial curve, poor fit]",–
COc1ccc(OC)c(NC(=O)CSc2ccc(-c3cccs3)nn2)c1,"inconclusive: 8.91 µM [inhibitor, full curve]",–
Cc1ccc(/C=N/NC(=O)c2nnn(-c3nonc3N)c2CNc2ccccc2)cc1,"inconclusive: 28.2 µM [inhibitor, single point]",–
OCc1ccccc1-c1nc(NCc2ccccc2)nc2ccsc12,"inconclusive: 35.5 µM [inhibitor, partial curve, poor fit]",–
N#CCCn1cc(C=C2C(=O)NC(=O)NC2=O)c(-c2ccccc2)n1,"inconclusive: 31.6 µM [inhibitor, partial curve, poor fit]",–
CCn1c(-c2cccn(Cc3ccc(Cl)cc3Cl)c2=O)n[nH]c1=S,active: 5.62 µM,–
CC(C)c1ccc(C2CC(=O)N3CN(Cc4ccco4)CSC3=C2C#N)cc1 (stereo unspecified),"inconclusive: 11.2 µM [inhibitor, partial curve, poor fit]",–
Oc1[nH]c2ccccc2c1N=NC(=S)N1CCOCC1,"inconclusive: 7.08 µM [inhibitor, partial curve]",–
Cc1ccc(NC(=S)N2CCC(c3ccc(C)cc3)C2)cc1 (stereo unspecified),"inconclusive: 35.5 µM [inhibitor, partial curve, poor fit]",–
Cn1c(CSCc2ccccc2)n[nH]c1=S,"inconclusive: 31.6 µM [inhibitor, partial curve, poor fit]",–
CCc1nnc(NC(=O)CSc2nc(-c3ccccc3)cc(-c3ccc(F)cc3)c2C#N)s1,"inconclusive: 50.1 µM [inhibitor, single point]",–
COc1ccc(-c2n[nH]c(=S)n2/N=C/C=C/c2ccccc2OC)cc1,"inconclusive: 1.26 µM [inhibitor, full curve]",–
CCc1nnc(NC(=O)c2ccc(Cl)c(S(=O)(=O)N3CCc4ccccc4C3)c2)s1,–,inactive: -1.23%
COc1ccccc1C(=O)Nc1ccc2c(C)cc(=O)oc2c1,–,inactive: 1.39%
O=c1c2ccccc2sn1-c1cc(S(=O)(=O)N2CCOCC2)ccc1N1CCOCC1,active: 4.47 µM,–
CC(=O)Nc1ccc(-n2cc(-c3ccccc3)[nH]c2=S)cc1,active: 3.16 µM,–
CCOC(=O)c1sc(NC(=O)CSc2nc(C)cc(C(F)(F)F)n2)c(C#N)c1C,"inconclusive: 28.2 µM [inhibitor, single point]",–
Cc1cc(-c2ccc(C)c(S(=O)(=O)NCc3cccc(Br)c3)c2)on1,inactive,–
COc1ccc(Cc2c(-c3ccco3)nc3ccc(Br)cn23)c(C)c1,"inconclusive: 20 µM [inhibitor, partial curve]",–
O=C(Sc1ccccc1)c1cccc(Cn2cc(C(F)(F)F)ccc2=O)c1,–,inactive: 0.0698%

SMILES,Potency,"activity, negative = inhibition"
S=c1[nH]nc(COc2ccccc2)n1C1CCCCC1,"inconclusive: 20 µM [inhibitor, partial curve, poor fit]",–
CCCc1nc2sc3ccccc3c(=O)c2c(=O)n1Cc1ccco1,–,inactive: -2.91%
Cc1cc(C(=O)NCc2cccs2)c(C)o1,–,inactive: 1.81%
CCCN1Cc2cccc(C(=O)Nc3ccc(C(C)=O)cc3)c2C1=O,–,inactive: 2.23%
c1ccc(C2=NNC(=NC3CC3)SC2)cc1,"inconclusive: 25.1 µM [inhibitor, partial curve]",–
Cc1cccc(/C=C(\C#N)c2nc3ccccc3c(=O)[nH]2)c1,–,inactive: -1.73%
O=C(Nc1ccccc1)C1=C(c2ccccc2)S(=O)(=O)CCS1(=O)=O,"inconclusive: 15.8 µM [inhibitor, partial curve]",–
O=c1ccn([C@@H]2O[C@H](CNCC3=Cc4cc(O)ccc4OC3)[C@@H](O)[C@H]2O)c(=O)[nH]1,–,inactive: 5.34%
COC(=O)COc1ccc(C(C2C(=O)CC(C)(C)CC2=O)C2C(=O)CC(C)(C)CC2=O)cc1,"inconclusive: 31.6 µM [inhibitor, single point]",–
COCCNC(=O)Nc1ccc2nc(-c3ccco3)c(-c3ccco3)nc2c1,"inconclusive: 25.1 µM [inhibitor, partial curve]",–
CCOc1ccc(-c2n[nH]c(=S)n2/N=C/c2cc3c(cc2[N+](=O)[O-])OCO3)cc1,"inconclusive: 0.794 µM [inhibitor, full curve, poor fit]",–
Cc1ccc(-c2nc(N3CCOCC3)s[n+]2-c2ccccc2)cc1,"inconclusive: 2.24 µM [inhibitor, full curve, poor fit]",–
CCc1ccc(S(=O)(=O)c2nnn3c2nc(Nc2ccc(NC(C)=O)cc2)c2sccc23)cc1,–,inactive: -5.44%
Cc1nc(S/C(C(=O)O)=C2/C(=O)Nc3ccccc32)n[nH]1,"inconclusive: 28.2 µM [inhibitor, single point]",–
C[n+]1c2ccccc2nc2ccc(NCCO)cc21,"inconclusive: 15.8 µM [inhibitor, partial curve, poor fit]",–
N#Cc1ccc(CSc2nnc(Cc3cccs3)n2Cc2ccco2)cc1,"inconclusive: 28.2 µM [inhibitor, single point]",–
CC12CC3CC(C)(C1)CC(C(=O)NCc1ccco1)(C3)C2,"inconclusive: 31.6 µM [inhibitor, partial curve, poor fit]",–
CCOC(=O)c1cnn(-c2ccccc2)c1-n1cccc1C(=O)C(=O)Nc1ccc(F)cc1,–,inactive: 1.53%
COCCCn1c(-c2ccc(Cl)cc2)n[nH]c1=S,"inconclusive: 11.2 µM [inhibitor, partial curve]",–
O=c1c(O)c(-c2cc(O)c(O)c(O)c2)oc2cc(O)cc(O)c12,"inconclusive: 50.1 µM [inhibitor, single point]",–
COc1ccc(C)cc1NC(=O)c1cc(S(=O)(=O)N2CCCCC2)c[nH]1,–,inactive: 6.63%
COc1ccc(NC(=S)NNc2ccc(S(=O)(=O)Nc3ccccc3C(=O)O)cc2[N+](=O)[O-])cc1,"inconclusive: 25.1 µM [inhibitor, partial curve]",–

SMILES,Potency,"activity, negative = inhibition"
N#CC1=C2SCN(C3CCCCC3)CN2C(=O)CC1c1ccc(Cl)cc1 (stereo unspecified),"inconclusive: 3.98 µM [inhibitor, full curve]",–
Nc1nc2ccc(S(=O)(=O)N3CCCCC3)cc2s1,"inconclusive: 12.6 µM [inhibitor, partial curve]",–
CCN(CC)S(=O)(=O)c1ccc(N2CCOCC2)c(NC(=S)NC(=O)c2ccco2)c1,"inconclusive: 25.1 µM [inhibitor, partial curve, poor fit]",–
Cn1c(-c2cccc3ccccc23)n[nH]c1=S,"inconclusive: 25.1 µM [inhibitor, partial curve, poor fit]",–
COc1ccc(N2C(=O)NC(=O)/C(=C/c3ccc([N+](=O)[O-])s3)C2=O)cc1,active: 12.6 µM,–
Cc1cc(-c2n[nH]c(=S)n2/N=C/C=C/c2ccccc2)n[nH]1,"inconclusive: 3.16 µM [inhibitor, partial curve]",–
COc1ccc2nc(SCC(=O)NCc3ccccc3)[nH]c2c1,–,inactive: -3.92%
CCCCc1ccc(NC(=S)Nc2ccc(Cl)c(S(=O)(=O)N(C)C)c2)cc1,"inconclusive: 50.1 µM [inhibitor, single point]",–
CCCC(=O)NC1=C(Cl)C(=O)c2ccccc2C1=O,"inconclusive: 11.2 µM [inhibitor, full curve, poor fit]",–
O=C(NC1CCCCC1)N1CCCC(c2nc(-c3cccs3)no2)C1 (stereo unspecified),–,inactive: -0.404%
Cn1cccc1C(=O)C(=O)Nc1cc(Cl)cc(Cl)c1,"inconclusive: 22.4 µM [inhibitor, partial curve, poor fit]",–
Cc1ccc(C(=O)/C=C/c2ccccc2)o1,–,inactive: -8.96%
O=C(CNC(=S)N(CCCN1CCOCC1)Cc1cccs1)NCc1ccc(Cl)cc1,"inconclusive: 5.62 µM [inhibitor, partial curve, poor fit]",–
Cc1[nH]nc2c1C(c1ccc3c(c1)OCO3)C(C#N)=C(N)O2 (stereo unspecified),"inconclusive: 35.5 µM [inhibitor, single point]",–
CN(c1ccc2nc3ccccc3c(=O)n2n1)C1CCCCC1,"inconclusive: 35.5 µM [inhibitor, partial curve, poor fit]",–
Cc1onc(C(=O)Nc2sc3c(c2C(N)=O)CCCC3)c1[N+](=O)[O-],"inconclusive: 35.5 µM [inhibitor, partial curve, poor fit]",–
CC(C)(C)c1ccc(-c2n[nH]c(=S)n2CCCN2CCOCC2)cc1,"inconclusive: 14.1 µM [inhibitor, partial curve]",–
CCn1c(-c2cccn(Cc3ccccc3)c2=O)n[nH]c1=S,"inconclusive: 25.1 µM [inhibitor, partial curve, poor fit]",–
CC(=O)Oc1ccc(C2OC(=O)c3ccccc3N2C(C)=O)cc1 (stereo unspecified),"inconclusive: 28.2 µM [inhibitor, partial curve, poor fit]",–
CNC(=S)NNC(=O)CNc1ccc(C)c(Cl)c1,"inconclusive: 15.8 µM [inhibitor, partial curve, poor fit]",–
COc1ccc(OC)c(-n2c(Cn3c(-c4ccccn4)nc4ccccc43)n[nH]c2=S)c1,"inconclusive: 12.6 µM [inhibitor, partial curve, poor fit]",–
Cc1ccc(NCc2n[nH]c(=S)n2-c2ccccc2)cc1,active: 2.82 µM,–
